This passage reports growth results from PubChem BioAssay (NCI).

The source holds several records for some structures; these can differ, active in one and inactive in another.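 How to read the values: 0–100, growth inhibition (40 = 60% inhibited); 0, no net growth; -100 to 0, cell death (-40 = 40% of starting cells died; -100 = all dead).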 The source holds more than one record for some entries. This is not the full list of results. There may be further records. For part of these data: This drug was run again and again over the years, at its own concentration, as given; one value stands for one run. Marks such as (2×) say how often a value occurs here. Entries with a single value are a further part of the results. Activity calls are given as the source filed them. Rule for the calls: active = growth percent below 10; inactive = the rest.

The test system of test [1] is IGROV1 ovarian. Kind of test: NCI-60 one-dose screen, 48 h (100 = growth as untreated, 0 = no growth, -100 = all killed). The settings on record: 25 µM; runs of 2000.
For test [2], the system named is OVCAR-3 ovarian. The description is as above. The note with it: 0.25 µM.

Consider `COc1cccc2c1C(=O)c1c(O)c3c(c(O)c1C2=O)C[C@@](O)(C(=O)CO)C[C@@H]3OC1CC(N)C(O)C(C)O1` (stereo not given in full), for which the growth result in test [1] is “active: -100% (2×), -78.7%”; in test [2] (runs of 2006) it was inactive: 65.9%; in test [2] (runs of 2007) it was “inactive: 63.7, 59.9, 73.6, 64.2, 64, 62.1, 73, 84.4, 83.1, 70.8, 71.4, 76.4, 78.1, 49, 47.6, 61, 50.5, 58.7, 68.8, 65.1, 76, 80, 86.2, 67.5, 51.4, 64.6, 72.4, 76.1, 74, 90.3, 91.6, 47.5, 65.2, 50.3, 58.6, 55.3, 53.5, 67.4% and active: 6.28%”; in test [2] (runs of 2008), “inactive: 66.5 (2×), 58.9, 59.4, 62.7, 60.5, 73.2, 72.7, 66.2, 77.4, 79.5, 74.5, 69.7, 78.9, 34.1, 63.3, 54.6, 50, 33.2, 54.2, 46.7, 51, 60, 46.5, 44.8, 101, 66.3, 26.8, 38.9, 54.3, 19, 34.6, 55.7, 45.3, 31.8, 32.1, 35.8, 36.5, 64.7, 63.1, 74, 48.6, 63.8, 55.5, 76.2, 40.4, 41.6, 46.2, 35, 69.1, 50.5, 54, 58.7% and active: 8.79%”; in test [2] (runs of 2009), “inactive: 50.1, 51.8, 52.2, 52.7 (2×), 56, 49.5, 63.6 (2×), 61.8 (2×), 63.1, 61.3, 68.5 (3×), 61.7, 59.8, 60.5, 65.1 (2×), 76.9 (2×), 61.4, 73.7, 65.8, 71.1 (2×), 73, 56.4, 33.3, 48.2, 57.6, 53.5, 66.6, 64.3, 57.5, 78.1, 60.4, 46.2, 46.9, 39.4, 77.5, 41.7 (2×), 61.9, 50.7, 42, 58.9, 79.4, 79.8, 69.6, 40.7, 55.4, 81.1, 71.4, 80.4, 55.8, 72.1, 77.6, 56.8, 99.3, 81.4, 74.1, 64.7, 92.2, 74.3, 83, 78.4, 80.2%”; in test [2] (runs of 2010), “inactive: 85 (2×), 90.1, 79.4, 74.3, 75.8 (2×), 92.3, 85.2, 84.1, 88.4, 78.9, 77.3 (2×), 70.5, 66.6 (2×), 78.2, 74.7, 65.5, 65.4, 69.6, 48, 67.7, 53.9, 72.4, 64.5, 62.4, 60.3, 61.1, 78.3, 77.8, 64.3, 69.1, 46.8, 74, 59.5, 71.3, 72.6, 73.2, 59.1, 63.3, 68.4, 59.4, 86, 68.1, 57.9, 74.5, 88, 82.8, 62.7, 71.2, 80.5, 77.5%”. For the same compound, the growth entry is “inactive: 70.6, 79.1, 78, 74.9 (2×), 84.4, 77.5, 76.2, 73.1 (2×), 83.8, 91.3, 75.1, 80.5 (2×), 88.2 (2×), 82.8, 86.1, 88.7, 88.5, 84.6, 88.9, 93.4, 87.9, 95.1, 88.4, 81.1, 79.7, 86.8, 79.8, 72.9, 80.3, 71.7, 52.1, 84, 62.4, 77.4, 73.7, 78.4, 79, 79.2, 64.6, 58.3, 68.7 (3×), 66.5, 73.2, 52.5, 80.8, 79.4, 72.3, 92.1, 79.3, 77.3%” in test [2] (runs of 2011); “inactive: 86.5, 76.5, 75.8, 75.1, 74.5 (3×), 83.2, 87.4, 84.4, 76.9, 74.3 (2×), 52.5, 46.6, 78.1, 80.4, 91.3, 87, 83.8, 88.4, 90.7, 102 (2×), 90.9 (2×), 90.4, 97.2, 96.5, 95.6, 95.7, 83.1, 106, 88.3, 92.2, 84.9, 83.6, 88.7, 60.5, 86.7, 81.4, 69, 66.1, 80.8, 73.1, 87.9, 89.3, 85, 86.8, 91.6, 100, 91.1, 89.2, 85.2, 84.8, 96.3, 85.7, 97.6, 84.6, 75, 61.7, 66.3, 60.2, 79.2, 67.8, 76.1, 71.4, 73.3, 64.8%” in test [2] (runs of 2012); “inactive: 59.1 (2×), 63.2, 70.1, 67.5, 69.6 (2×), 76.1, 68, 79.2 (3×), 70.6 (2×), 64.7 (2×), 75.9 (3×), 77.8 (2×), 78.5, 73.4, 66.3 (2×), 81.1, 72 (2×), 62.9, 72.9, 60.1, 77.2 (2×), 90.1, 76.3, 82, 87.7, 77.4, 87.6, 72.4, 82.5, 77.9, 88.4, 79.8, 76.8, 88.2, 79.5, 69.1, 84, 72.3, 69.4, 77, 68.7, 65.9, 52.1, 62.6, 59.7, 66.5, 60.2, 64.2, 53.9, 64.6 (2×), 70.3, 71.9, 56.7, 60.7, 65.5%” in test [2] (runs of 2013); “inactive: 70.1, 69.9, 64.2, 58.7, 55.9, 56.8 (2×), 55.3, 61 (2×), 50.2, 66.5, 61.8, 61.2 (2×), 73.7, 59.9, 70.6 (2×), 58.5, 72.4, 68.5, 68.8 (2×), 64.8, 63.7, 69.1, 62.5 (2×), 61.1, 62.4 (2×), 62.8, 76.9 (2×), 73.9 (2×), 76.2, 73.3, 74.1, 70, 72.6 (2×), 73.1, 71.3, 69.4, 76, 70.9, 59.8 (2×), 64.7, 65.5, 65.4, 66.7, 63.8, 63.6, 65.1, 58.1, 60.5, 57.2, 65.2 (3×), 66.8 (2×), 71.9, 63, 79.3, 74.3, 68.1, 66.1, 69.6%” in test [2] (runs of 2014); “inactive: 74.8, 62.4 (2×), 58.2, 65.1, 55.7, 65.5, 72.4, 71.8 (2×), 68.6, 65.9 (2×), 64.4, 72.1, 71.3, 76.2, 64, 52.8, 52, 59.4, 60.1 (2×), 56.3 (2×), 59, 71.9, 79.4, 68.7, 69.4 (2×), 55.2 (2×), 57, 57.9 (3×), 49.7, 58.6 (2×), 56.8 (2×), 55.3, 55.9, 55.6, 55.5, 87.9, 81.1, 61.9, 63.8, 53.4, 56.7, 68, 66.1, 64.8, 62.1, 68.5, 56, 44.5, 63.7, 76.5, 60.4, 65.6, 56.1, 55.4, 54.7, 68.4 (3×), 69.9, 64.7, 69.1, 66.7, 71.4, 63.2, 66.5, 57.4, 58.9, 64.6, 59.6, 60.2, 61.7, 56.9, 70.4%” in test [2] (runs of 2015); “inactive: 65.5 (3×), 56.9 (2×), 62.9, 59, 72.9 (2×), 68.7 (3×), 63.9 (2×), 66.5, 63, 66.2 (2×), 64, 53 (2×), 53.4, 57.8, 51.6, 46.6, 61.4, 52.2, 55.2, 55.4, 58, 61.7, 57.1, 56.5, 57.6, 59.7, 59.2, 56.8, 60.3, 57.2, 63.4, 55.7, 65.3, 61.2 (2×), 69.7, 72.1 (2×), 70 (2×), 68 (2×), 73.7 (3×), 65.8, 65.2, 69.9, 66.6, 67.5 (2×), 73.9, 82.2, 71.2, 70.3, 76.5, 76.1 (2×), 78.6 (2×), 73.3, 80.4, 76.8 (2×), 78.1, 78.2, 75.7, 76, 69, 67.2, 67.9, 70.5%” in test [2] (runs of 2016). Also, the growth result in test [2] (runs of 2017) is “inactive: 73.8, 68, 66.5, 64, 62.2 (4×), 60.5, 64.9 (2×), 69.5 (2×), 59.7 (3×), 57.4, 64.3, 62.8, 61.1 (2×), 55.4, 52, 53.1, 62.7 (3×), 65.9 (3×), 57.2, 54.5, 63.1 (3×), 57 (2×), 57.7, 63.7, 65.1, 68.6, 67.5, 64.8, 58.6, 60.8, 43.8, 65.2, 64.4, 61.2, 61.4, 63.2, 61.9, 70, 71.4, 66.8, 62.3, 60.3, 60.4, 72.7, 75, 67.3 (2×), 76.4, 75.8, 70.8, 71.2, 74, 72, 57.9, 68.5, 72.6, 63.6, 65, 68.8, 67.4, 65.3%”; in test [2] (runs of 2018), “inactive: 72.4, 69.5 (2×), 60.1, 60.7, 69.1, 67.4, 65.3, 60.6, 57.6, 65.5, 74 (2×), 67.9, 65.8, 78.5, 74.2, 77.2, 73.3, 71.2 (2×), 69.9, 70.9, 65.9, 72.9, 74.8, 67.7, 61.9, 62.9, 63.9, 63.7, 73.4, 73.7, 71.7, 55.6, 60, 67.8 (2×), 64.7, 62.6, 68.7, 64, 59.7, 70, 75.5, 68.1, 65.4, 63, 66.3 (2×), 70.1, 70.4, 66.5, 69, 47.8, 53.7%”; in test [2] (runs of 2019), “inactive: 62.5, 51.2, 56.7, 49.5, 51, 53.6, 56.5, 54.5, 51.6 (2×), 58.1, 54.3 (2×), 60.3, 69.5, 62.1, 73.7, 60.7, 66.5, 62.8, 61, 64, 59.5, 59.6, 74.7, 45.1, 64.5, 56.1, 52.1, 66.1, 67.5, 58.5, 55.3, 52.3, 65.5, 65, 58.3, 66.6, 57.8, 75.8, 66.8, 69.7, 65.1, 61.9, 56.4%”.
